Measurements: article PMC8052441, “Structural insight into the molecular mechanism of p53-mediated mitochondrial apoptosis” (Nature Communications, 2021)

Molecular target: T1, p53-DT (human p53 DBD and tetramerization domain, amino acids 92-360) (human, UniProt P04637 92-360)
T1 construct: human p53, DBD and tetramerization domain, amino acids 92-360; Tetramer in solution by gel filtration and cross-linking; also called wild-type p53-DT; not shown: His6, N-terminal, cleaved
Assay: ITC; p53 protein (100 µM) titrated into 10–30 µM BCL-xL or BCL-2; 25 °C; 50 mM Tris pH 7.0, 40 mM NaCl, 1 mM TCEP
Settings: both partners purified

Kd: 3.3 µM
B1: BCL-2 (human, […]) (domain or fragment)
chain: not shown
notes: human BCL-2, […]; Cloned into pET-28a
